Experimental data as given in PubChem BioAssay AID2202238 (Ras Initiative Chemistry Research Team, Frederick National …, 2025).
Some of the results follow. Shown are side measurements of this screen, not its main read-out; they come without a call.

Target: GTPase KRas (Homo sapiens) (UniProt P01116)
Assay: Fragment capture on engineered cysteines, share of protein labelled (AID 2202238)
Design: protein at 5 µM with 500 µM competing thiol for 1.5 h
Conditions: KRAS G12D cysteine mutants, disulfide tethering, MALDI-TOF labeling, stronger effect = higher value, fragment at 500 µM
[1] = measured here: G60C mutant labeling
[2] = measured here: G75C mutant labeling
[3] = measured here: H94C mutant labeling
[4] = measured here: I36C mutant labeling
[5] = measured here: L120C mutant labeling
[6] = measured here: M67C mutant labeling
[7] = measured here: M72C mutant labeling
[8] = measured here: N26C mutant labeling
[9] = measured here: N86C mutant labeling
[10] = measured here: P121C mutant labeling
[11] = measured here: S122C mutant labeling
[12] = measured here: S136C mutant labeling

UniProt P01116, sequence (P01116 whole entry, looked up, the tested form may be a part): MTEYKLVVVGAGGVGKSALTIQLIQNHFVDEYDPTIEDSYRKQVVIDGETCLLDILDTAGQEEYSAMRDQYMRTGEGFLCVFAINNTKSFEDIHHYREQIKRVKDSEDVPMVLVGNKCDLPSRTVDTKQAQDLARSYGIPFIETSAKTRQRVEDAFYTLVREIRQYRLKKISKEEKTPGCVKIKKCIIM

In the case of `O=C(Cn1nc(-c2ccccc2)ccc1=O)NCCS`, the percent labeling [1] is reported as 38.4%, the percent labeling [2] is reported as 19.3% and the percent labeling [3] is reported as 35.2%. For the same compound, the percent labeling [4] was 25.2%, the percent labeling [5] was 47.1% and the percent labeling [6] was 49.3%. For the same compound, the percent labeling [7] was 39.9%, the percent labeling [8] was 42.6% and the percent labeling [9] was 24.5%. It also gave a percent labeling [10] of 32.9%, a percent labeling [11] of 27.9% and a percent labeling [12] of 50%.

In the case of `Cc1nc2nc(C(=O)NCCS)cc(C(C)(C)C)n2n1`, the percent labeling [1] is reported as 37.3%, the percent labeling [2] is reported as 20.7% and the percent labeling [3] is reported as 27.8%. For the same compound, the percent labeling [4] was 20.4%, the percent labeling [5] was 33.4% and the percent labeling [6] was 25.5%. For the same compound, the percent labeling [7] was 58.2%, the percent labeling [8] was 37.5% and the percent labeling [9] was 17.2%. The percent labeling [10] was 21.8%, the percent labeling [11] was 19.5% and the percent labeling [12] was 48.6%.

For `O=C(NCCS)c1cnc(C2CCCO2)s1` (stereo not drawn), the percent labeling [1] was 12.5%, the percent labeling [2] was 6.8% and the percent labeling [3] was 10.3%. The percent labeling [4] was 10.6%, the percent labeling [5] was 13.1% and the percent labeling [6] was 15.1%. The percent labeling [7] was 14.7%, the percent labeling [8] was 22.2% and the percent labeling [9] was 6.1%. For the same compound, the percent labeling [10] was 10.7%, the percent labeling [11] was 16.9% and the percent labeling [12] was 26.2%.

`O=C(CCS)NCC1CN(Cc2ccccc2)Cc2nccn2C1` (stereo not drawn) was tested, and the percent labeling [2] was 19.1%, the percent labeling [3] was 26.5% and the percent labeling [4] was 38.6%. It also gave a percent labeling [5] of 20%, a percent labeling [6] of 48.7% and a percent labeling [7] of 21.6%. It also gave a percent labeling [9] of 20.7%, a percent labeling [10] of 29.2% and a percent labeling [11] of 24.3%. The percent labeling [12] was 51.9%.

`O=C(CCS)N1CCC(n2c(=O)[nH]c3cccnc32)CC1` showed a percent labeling [2] of 17.8%, a percent labeling [3] of 38.3% and a percent labeling [4] of 40.8%. The percent labeling [5] was 36.4%, the percent labeling [6] was 59.4% and the percent labeling [7] was 35%. The percent labeling [9] was 21%, the percent labeling [10] was 34.9% and the percent labeling [11] was 35.6%. It also gave a percent labeling [12] of 61.5%.

Work on `O=C(CCS)Nc1ccc(-n2ccccc2=O)cc1F` yielded a percent labeling [2] of 19.3%, a percent labeling [3] of 38.6% and a percent labeling [4] of 43.1%. For the same compound, the percent labeling [5] was 34.7%, the percent labeling [6] was 40.2% and the percent labeling [7] was 43.7%. It also gave a percent labeling [9] of 41.4%, a percent labeling [10] of 37.2% and a percent labeling [11] of 42.7%. The percent labeling [12] was 54.8%.

In the case of `CC1(C)CN(C(=O)CCS)CCN(C(=O)OC(C)(C)C)C1`, the percent labeling [2] is reported as 21%, the percent labeling [3] is reported as 38.2% and the percent labeling [4] is reported as 39%. It also gave a percent labeling [5] of 31.2%, a percent labeling [6] of 44.7% and a percent labeling [7] of 33.7%. It also gave a percent labeling [9] of 34.5%, a percent labeling [10] of 31.4% and a percent labeling [11] of 34.8%. For the same compound, the percent labeling [12] was 61.2%.

In the case of `CC1CCc2cc(F)cc3c(=O)c(C(=O)NCCS)cn1c23` (stereo not drawn), the percent labeling [1] is reported as 33.6%, the percent labeling [2] is reported as 36.5% and the percent labeling [3] is reported as 27.3%. The percent labeling [4] was 17.8%, the percent labeling [5] was 19.2% and the percent labeling [6] was 20.6%. The percent labeling [7] was 61%, the percent labeling [8] was 37% and the percent labeling [9] was 12.3%. For the same compound, the percent labeling [10] was 22.1%, the percent labeling [11] was 10.9% and the percent labeling [12] was 32.7%.

`O=C(CCS)NC1CCC(C(F)(F)F)CC1` (stereo not drawn) was tested, and the percent labeling [2] was 13.5%, the percent labeling [3] was 33.6% and the percent labeling [4] was 44.9%. The percent labeling [5] was 27.6%, the percent labeling [6] was 27.7% and the percent labeling [7] was 34.6%. It also gave a percent labeling [9] of 33.4%, a percent labeling [10] of 31.6% and a percent labeling [11] of 34.4%. The percent labeling [12] was 52.3%.
